Experimental data published in the supplement of paper PMC6609913.
Structures can show the parent of a compound that is named as a salt. ± gives the standard deviation of the averaged measurements. In all, about 1,300 compounds were measured (“normalised cell viability”: median about 1, lowest 2% from about 0.14 on). The list shows a part of the results.

Test system: V-C8 (BRCA2-deficient hamster cells)
Assay: normalised cell viability (fraction of plate median); higher = more viable cells (less toxic)
Conditions: 5 µM
Summary of the method: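 Hamster V-C8 cells with and without restored BRCA2 were exposed in 96-well plates to library drugs at 5 μM for 3 days (screen 1) or 6 days (screen 2). Cell viability was scored by resazurin assay, then median-plate normalised, averaging triplicate wells.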

Row | SMILES | normalised cell viability (treatment time: 3 days) | normalised cell viability (treatment time: 6 days)
1 | CN1[C@@H]2CC[C@H]1C[C@@H](OC(=O)C(CO)c1ccccc1)C2 (stereo partly drawn) [Atropine sulfate monohydrate] | 0.884 ± 0.039 | 1.13 ± 0.0053
2 | CNC(C)(C)Cc1ccccc1 [Mephentermine hemisulfate] | 0.881 ± 0.15 | 0.9918 ± 0.0049
3 | C[C@]12CCC(=O)C(O)=C1CC[C@@H]1[C@@H]2CC[C@]2(C)C(=O)CC[C@@H]12 [Formestane] | 0.964 ± 0.04 | 1.04 ± 0.075
4 | COc1ccc(C(CN(C)C)C2(O)CCCCC2)cc1 (stereo not drawn) [Venlafaxine] | 1.03 ± 0.025 | 0.587 ± 0.061
5 | CNC(=O)Oc1ccc2c(c1)[C@]1(C)CCN(C)[C@@H]1N2C [Eserine sulfate, physostigmine sulfate] | 0.839 ± 0.046 | 1.06 ± 0.06
6 | CN(C)C(=O)Oc1cccc([N+](C)(C)C)c1 [Neostigmine bromide] | 1.14 ± 0.083 | 1.03 ± 0.07
7 | CC(C)(N)Cc1ccccc1 [Phentermine hydrochloride] | 1.02 ± 0.015 | 1.05 ± 0.057
8 | CCNCC(O)c1cccc(O)c1 (stereo not drawn) [Etilefrine hydrochloride] | 1.06 ± 0.023 | 0.962 ± 0.077
9 | COc1cc([C@@H]2c3cc4c(cc3[C@H](O)[C@H]3COC(=O)[C@H]23)OCO4)cc(OC)c1OC [Podophyllotoxin] | 0.126 ± 0.01 | 0.143 ± 0.0037
10 | CCNC1(c2cccs2)CCCCC1=O (stereo not drawn) [Tiletamine hydrochloride] | 1.08 ± 0.042 | 1.12 ± 0.037
11 | C[C@@H]1CC[C@H]2[C@@H](C)C(=O)O[C@@H]3O[C@@]4(C)CC[C@@H]1[C@]32OO4 [Artemisinin] | 0.239 ± 0.0087 | 0.266 ± 0.0074
12 | CCC1(c2cccc(O)c2)CCCCN(C)C1 (stereo not drawn) [Meptazinol hydrochloride] | 1.24 ± 0.3 | 1.01 ± 0.02
13 | CCN(C(C)=O)c1cccc(-c2ccnc3c(C#N)cnn23)c1 [Zaleplon] | 1.13 ± 0.075 | 0.981 ± 0.063
14 | NCCc1c[nH]c2ccc(O)cc12 [Serotonin hydrochloride] | 1.02 ± 0.071 | 1.08 ± 0.047
15 | CCC(COC(=O)c1cc(OC)c(OC)c(OC)c1)(c1ccccc1)N(C)C (stereo not drawn) [Trimebutine] | 0.993 ± 0.041 | 0.901 ± 0.12
16 | CC(=O)OCC1=C(C(=O)O)N2C(=O)[C@@H](N)[C@H]2SC1 [Cephalosporanic acid, 7-amino] | 1.06 ± 0.12 | 1.07 ± 0.043
17 | CO[C@]12C[C@@H](COC(=O)c3cncc(Br)c3)CN(C)[C@@H]1Cc1cn(C)c3cccc2c13 [Nicergoline] | 0.886 ± 0.074 | 0.994 ± 0.033
18 | C[N+]12CCC(CC1)C(OC(=O)C(O)(c1ccccc1)c1ccccc1)C2 (stereo not drawn) [Clidinium bromide] | 1.02 ± 0.025 | 1.06 ± 0.016
19 | C[C@@]12N[C@@H](Cc3ccccc31)c1ccccc12 [(-)-MK 801 hydrogen maleate] | 1.031 ± 0.0088 | 1.01 ± 0.0093
20 | C[C@]12Cc3c[nH]nc3C[C@@H]1CC[C@@H]1[C@@H]2CC[C@@]2(C)[C@H]1CC[C@]2(C)O [Stanozolol] | 1.07 ± 0.064 | 1.06 ± 0.036
21 | CC(C)C[C@H](CN)CC(=O)O [Pregabalin] | 1.07 ± 0.083 | 1.06 ± 0.047
22 | CC(C)(C)NCC(O)c1ccccc1Cl (stereo not drawn) [Tulobuterol] | 1.07 ± 0.015 | 1.05 ± 0.086

Row | SMILES | normalised cell viability (treatment time: 3 days) | normalised cell viability (treatment time: 6 days)
23 | O=P1(NCCCl)OCCCN1CCCl (stereo not drawn) [Ifosfamide] | 0.947 ± 0.064 | 1.08 ± 0.019
24 | CC(C)c1c(CN(C)C(C)Cc2ccccc2)n(C)n(-c2ccccc2)c1=O (stereo not drawn) [Famprofazone] | 0.878 ± 0.018 | 0.899 ± 0.014
25 | C=C(C)[C@@H]1[C@H]2OC(=O)[C@@H]1[C@]1(O)C[C@H]3O[C@]34C(=O)O[C@H]2[C@]14C [Picrotoxinin] | 1.007 ± 0.0066 | 1.11 ± 0.061
26 | NC(=O)CN1CCCC1=O [Piracetam] | 1.04 ± 0.12 | 1.04 ± 0.06
27 | COc1cc2c(cc1OC)C(C)NCC2 (stereo not drawn) | 1.04 ± 0.036 | 1.02 ± 0.017
28 | CC(=O)OCC(=O)[C@H]1CC[C@H]2[C@@H]3CC[C@H]4C[C@H](O)CC[C@]4(C)[C@H]3C(=O)C[C@]12C [Alfadolone acetate] | 1.02 ± 0.04 | 1.07 ± 0.062
29 | CN1CCN(C(=O)OC2c3nccnc3C(=O)N2c2ccc(Cl)cn2)CC1 (stereo not drawn) [Zopiclone] | 1.11 ± 0.05 | 1.04 ± 0.061
30 | Clc1ccc(C(OCCN2CCCCC2)c2ccccc2)cc1 (stereo not drawn) [Cloperastine hydrochloride] | 0.783 ± 0.12 | 0.781 ± 0.093
31 | C[C@]12CC[C@H](O)C[C@H]1CC[C@@H]1[C@@H]2C[C@@H](O)[C@]2(C)[C@@H](C3=CC(=O)OC3)CC[C@]12O [Digoxigenin] | 0.944 ± 0.025 | 1.03 ± 0.058
32 | CC(=O)NC1CCSC1=O (racemic) [N-Acetyl-DL-homocysteine Thiolactone] | 1.02 ± 0.03 | 1.13 ± 0.069
33 | CC(Cc1ccccc1)NCCC(c1ccccc1)c1ccccc1 (stereo not drawn) [Prenylamine lactate] | 0.811 ± 0.051 | 0.831 ± 0.065
34 | NC(=O)C[S+]([O-])C(c1ccccc1)c1ccccc1 (stereo not drawn) [Modafinil] | 1.08 ± 0.021 | 1.01 ± 0.047
35 | Cc1cccc(C)c1NC1=NCCCS1 [Xylazine] | 1.1 ± 0.11 | 1.03 ± 0.051
36 | CCC1(c2ccc(N)cc2)CCC(=O)NC1=O (stereo not drawn) [Glutethimide, para-amino] | 0.905 ± 0.023 | 0.971 ± 0.098
37 | CCN(C)C(=O)Oc1cccc([C@H](C)N(C)C)c1 [Rivastigmine] | 1.03 ± 0.056 | 0.987 ± 0.07
38 | CC[C@@]1([C@@H]2O[C@@H]([C@H]3O[C@@](O)(CO)[C@H](C)C[C@@H]3C)C[C@@H]2C)CC[C@H]([C@]2(C)CC[C@]3(C[C@H](O)[C@@H](C)[C@@H]([C@@H](C)[C@@H](OC)[C@H](C)C(=O)O)O3)O2)O1 [Monensin sodium salt] | 0.156 ± 0.0082 | 0.128 ± 0.0063
39 | CN(C)C(=O)Oc1cc(OC(=O)N(C)C)cc(C(O)CNC(C)(C)C)c1 (stereo not drawn) [Bambuterol hydrochloride] | 0.913 ± 0.044 | 0.998 ± 0.063
40 | CCn1cc(C(=O)O)c(=O)c2cc3c(cc21)OCO3 [Oxolinic acid] | 1.05 ± 0.044 | 0.993 ± 0.051
41 | C[C@]12CC[C@H](O)C[C@@H]1CC[C@@H]1[C@@H]2CC[C@]2(C)C(=O)CC[C@@H]12 [Epiandrosterone] | 1.01 ± 0.021 | 0.99 ± 0.066
42 | NCC(O)c1ccc(O)cc1 (racemic) [(+,-)-Octopamine hydrochloride] | 1.02 ± 0.083 | 1.1 ± 0.083
43 | CN1[C@@H]2CC[C@H]1C[C@@H](OC1c3ccccc3CCc3ccccc31)C2 [Deptropine citrate] | 0.924 ± 0.022 | 0.775 ± 0.042
44 | C[C@]12CC[C@@H]3c4ccc(OC(=O)N(CCCl)CCCl)cc4CC[C@H]3[C@@H]1CC[C@@H]2O [Estramustine] | 0.175 ± 0.019 | 0.213 ± 0.013
